# Measured values published in PubChem BioAssay AID686971 (National Center for Advancing Translational Sciences (NCATS), 2013).
# Values joined by “and” are separate entries in the source; they are usually repeats but may differ in a detail not shown here. Identical values can stand only once. Screen size: about 360,000 compounds; about 7,500 (2.1%) were called active. The inconclusive results got no clear call from the source; some entries with a clear call stand among them for comparison. Calls come from the whole dose curve; as a rule, active = well fitted cell-killing curve with a large enough effect; inconclusive = small, poorly fitted or top-dose-only effect, or effect the other way, or another doubt; inactive = no such curve, though single readings can be large or run the other way. Potencies of inconclusive entries are doubtful fits and often do not repeat.
# Assay: qHTS for induction of synthetic lethality in tumor cells producing 2HG: qHTS for the HT-1080-IDH1KD cell line;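 for activity, negative = toxicity: 0% = DMSO wells and -100% = cell-free medium wells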
# Details: HT-1080 IDH1 knockdown viability, ATP luminescence, 48 h; activity, negative = toxicity: at 46.1 µM (top of the series) unless noted
# In short: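 Knockdown cells (IDH1KD HT-1080) received compounds 2 h after plating at 750 cells/well and were kept 48 h at 37 °C in 5% FBS RPMI. A CellTiter-Glo luminescence read gave % activity for curve fitting.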
# Potency is the fitted concentration of half-maximal effect; tags give direction and shape of the fitted curve.
Compound,Potency,"activity, negative = toxicity"
O=C(CCOc1ccccc1)N1CCN(c2ccc(O)cc2)CC1,active: 4.61 µM,
O=C(NC(=S)Nc1ccc(CN2CCOCC2)cc1)c1ccc2c(c1)OCCO2,"inconclusive: 23.1 µM [cytotoxic, partial curve]",
Cn1c(=O)c([N+](=O)[O-])c(Oc2ccccc2)c2ccccc21,active: 23.1 µM,
O=C(CC12CC3CC(CC(C3)C1)C2)N/N=C/c1ccc([N+](=O)[O-])o1,"inconclusive: 29.1 µM [cytotoxic, single point]",
NC(=O)c1ccc(SCC(=O)OCC(=O)N2CCCC2=O)c([N+](=O)[O-])c1,inactive,
CCCS(=O)(=O)Nc1ccc(Nc2c3ccccc3nc3ccccc23)c(OC)c1,"inconclusive: 2.59 µM [cytotoxic, partial curve]",
O=S(=O)(Nc1ccc2c3c(cccc13)CC2)c1ccccc1,inactive,
COc1ccc(CNC(=O)c2noc3c2CCCCC3)cc1,"inconclusive: 25.1 µM [cytotoxic, single point]",
CC(CCc1ccccc1)NC(=O)C(=O)c1c[nH]c2ccccc12 (stereo unspecified),"inconclusive: 20.6 µM [cytotoxic, single point]",
CCCc1ccc(C(=O)CCC(=O)O)cc1,"inconclusive: 29.1 µM [cytotoxic, single point]",
CCC(C)Sc1cc(-c2nc3cc(C)ccn3c2NC2CCCCC2)ccc1OC (stereo unspecified),"inconclusive: 29.1 µM [cytotoxic, single point] and inconclusive: 18.4 µM [cytotoxic, single point]",
Cc1c(Cl)cccc1NC(=S)N=Nc1c(O)n(CN2CCOCC2)c2ccccc12,,inconclusive: -30% [cytotoxic]
CC1=CC(=O)C(C(C)C)=C/C1=N/OS(=O)(=O)c1ccccc1,active: 5.8 µM,
Cn1ccc(C(=O)NC(=S)Nc2ccc([N+](=O)[O-])cc2O)n1,inactive,
Cc1ccc(O)c(N/C=C/C(=O)c2ccc(F)cc2)c1,"inconclusive: 6.51 µM [cytotoxic, partial curve]",
Cc1nc(C)c(C(=O)N/N=C/c2cc(Br)ccc2O)s1,active: 2.06 µM,
Cc1ccc(/C=N/NC(=O)CCCOc2ccc(Cl)cc2Cl)cc1,active: 14.6 µM,
CC(C)c1ccc(/C=N/NC(=O)c2ccccn2)cc1,"inconclusive: 32.6 µM [cytotoxic, single point]",
Cc1c(C)n(Cc2ccc(Cl)cc2)c2ccc(C(=O)NCCCN3CCOCC3)cc12,"inconclusive: 20.6 µM [cytotoxic, single point]",
COCCOC(=O)c1[nH]c2c(c1C)C(=O)CC(c1ccc(F)cc1)C2 (stereo unspecified),active: 23.1 µM,
Cc1ccccc1NC(=O)c1cccc(NC(=O)c2ccco2)c1,inactive,
Cn1c(=NC(=O)CCl)sc2ccccc21,active: 6.51 µM,
COc1ccc(C(OCC(O)CNCCc2ccc(S(N)(=O)=O)cc2)c2ccc(OC)cc2)cc1 (stereo unspecified),"inconclusive: 16.4 µM [cytotoxic, partial curve]",
Cc1ccc(C2CC(=O)NC(SCC(=O)OCc3ccccc3)=C2C#N)o1 (stereo unspecified),"inconclusive: 23.1 µM [cytotoxic, single point]",

Compound,Potency,"activity, negative = toxicity"
Cc1nn(C)c(C)c1N=Cc1c(O)ccc2ccccc12,"inconclusive: 15.8 µM [cytotoxic, single point]",
COc1ccccc1CNC(=O)C1(C)CCN1C(=O)Cc1ccc(-c2ccccc2)cc1 (stereo unspecified),"inconclusive: 16.4 µM [cytotoxic, single point]",
COc1ccccc1Nc1nc(NCCO)nc(N)c1[N+](=O)[O-],"inconclusive: 16.4 µM [cytotoxic, partial curve]",
Cc1noc(NS(=O)(=O)c2ccc(N/C=C\C(=O)c3ccc4c(c3)OCO4)cc2)c1C,active: 10 µM,
CN1CCN(c2ccc(CNC(=O)C3Cc4c(-c5ccc(Cl)cc5)ccnc4O3)cc2)CC1 (stereo unspecified),"inconclusive: 20.6 µM [cytotoxic, single point]",
Cc1cccc(C)c1NC(=S)N(CCN(C)C)C(C)c1ccccn1 (stereo unspecified),inactive,
CCOC(=O)c1c(-c2ccccc2)oc2ccc(O)c(CN3CCN(C)CC3)c12,"inconclusive: 29.1 µM [cytotoxic, single point]",
Cc1onc(-c2ccccc2)c1C(=O)NCc1ccccc1F,inactive,
O=C(NCc1cccnc1)c1cccnc1Sc1ccc(Cl)cc1,"inconclusive: 15.8 µM [cytotoxic, single point]",
CCOC(=O)C1(CC2CC2)CCN(Cc2cn(C)c3ccccc23)CC1,"inconclusive: 25.9 µM [cytotoxic, single point]",
COc1cc(/C=N/NC(=O)c2ccc(COc3cc(C)ccc3C(C)C)cc2)cc(OC)c1O,active: 20.6 µM,
O=C(Nc1cccc(-c2nc3ccccc3s2)c1)c1cc(-n2cnnc2)ccc1Cl,"inconclusive: 29.1 µM [cytotoxic, single point]",
COc1ccc2c(Cn3cnc4cc([N+](=O)[O-])ccc4c3=O)cc(=O)oc2c1,active: 2.59 µM,
CCCCc1ccc(NC(=S)NCc2ccc(OC)cc2)cc1,,inconclusive: -31.9% [cytotoxic]
CC[C@]12c3[nH]c4cc(-c5ccco5)ccc4c3CCN1C(=O)[C@@H](CC(=O)NC/C=C(\C)CCC=C(C)C)C[C@@H]2C(=O)N1CCN(C(=O)c2ccco2)CC1,"inconclusive: 18.4 µM [cytotoxic, single point]",
Cn1ncc(SCc2ccccc2)c(Cl)c1=O,"inconclusive: 10.3 µM [cytotoxic, partial curve]",
COc1ccc([C@H]2CC(=O)C=C(c3cc(Br)ccc3OC)C2)cc1,"inconclusive: 29.1 µM [cytotoxic, single point]",
Cc1cc(C)c2c(c1)c1nnc(SCCN3CCCCC3)nc1n2C,inactive,
OCC(O)C1OC(Nc2ccc(Cl)cc2)C(O)C1O (stereo unspecified),"inconclusive: 10.3 µM [cytotoxic, partial curve]",
C=CC[C@@H](CC(=O)N[C@@H](CO)Cc1ccccc1)C(=O)NC[C@@H](OC(=O)[C@@H](CC=C)CC(=O)OC(C)(C)C)c1ccccc1,inactive,
O=C(NCc1nc2ccccc2[nH]1)C1=C[C@@H](c2ccc(Br)cc2)C[C@@H](OCc2ccc(CO)cc2)O1,"inconclusive: 20.6 µM [cytotoxic, single point]",
Cc1nc(SCC(=O)N(C)Cc2ccco2)c2c(C)c(C)sc2n1,,inconclusive: -30.9% [cytotoxic]
COc1ccc(-n2nc3c(N4CCC(C(=O)NCc5ccccc5C)CC4)nnc(C)c3c2C)cc1,active: 16.4 µM,
COc1ccc(/C=C/C(=O)Nc2ccc(C34CC5CC(CC(O)(C5)C3)C4)cc2)cc1OC,active: 2.59 µM,

Compound,Potency,"activity, negative = toxicity"
CN(CC(=O)Nc1ccc(C#N)cc1)Cc1ccc(Cl)cc1,"inconclusive: 20 µM [cytotoxic, single point]",
Cc1ccc(N(CC(=O)N2CCN(c3ccc(F)cc3)CC2)S(=O)(=O)c2c(C)noc2C)cc1,inactive,
CC1=CC2=NC(=O)/C(=C\c3cc(C)n(-c4ccc(F)cc4)c3C)C(=N)N2O1,inactive,
O=C(O)c1ccccc1SCc1csc(-c2ccccc2)n1,inactive,
CN(C(=O)COC(=O)c1ccc(F)c(S(=O)(=O)N2CCOCC2)c1)C1CCS(=O)(=O)C1 (stereo unspecified),"inconclusive: 32.6 µM [rising, single point]",
O=C(Nc1ccc(Cl)c(Cl)c1)Nc1nccs1,"inconclusive: 29.1 µM [cytotoxic, single point]",
O=C(Nc1ccc(NC(=S)NC(=O)C(c2ccccc2)c2ccccc2)cc1)c1ccccc1,"inconclusive: 14.6 µM [cytotoxic, single point]",
Cc1cc(C)c2cc(C)c3nnc(SCC(=O)NCc4ccc5c(c4)OCO5)n3c2c1,inactive,
CC1(C(=O)NS(=O)(=O)c2cccc(F)c2)CCN1C(=O)CC1CCCC1 (stereo unspecified),inactive,
CC1=N/C(=C/c2cc(Br)cc(Br)c2O)C(=O)O1,inactive,
O=C(NC1CCCC1)C(c1cccs1)N(C(=O)c1csnn1)c1ccccc1F (stereo unspecified),inactive,
COc1cccc(OC)c1C(=O)Oc1ccc2c(c1)O/C(=C\c1ccncc1)C2=O,"inconclusive: 25.9 µM [cytotoxic, single point]",
CC1=C/C(=N\S(=O)(=O)c2ccccc2)C(C(C)C)=CC1=O,"inconclusive: 13 µM [cytotoxic, partial curve]",
COc1cc(NC(=O)C2=C(N3CCOCC3)/C(=C\c3ccc(N(C)C)cc3)CCC2)cc(OC)c1OC,active: 29.1 µM,
CC(C)CN1C(=O)CN(S(C)(=O)=O)CC1(C)C(=O)Nc1ccc2c(c1)OCCO2 (stereo unspecified),inactive,
CCOC(=O)c1c(S(=O)(=O)NCc2ccc(OC)cc2)c(C)n(C)c1C,inactive,
Cc1ccc(C(=O)NCCSC2CCCCC2)cc1S(=O)(=O)Nc1ccccc1,"inconclusive: 35.5 µM [cytotoxic, single point]",
COCCNc1nc(Nc2ccc(C(=O)OC)cc2)c2sccc2n1,"inconclusive: 18.4 µM [cytotoxic, partial curve]",
CCOc1c(Cl)cc(CNc2ccc(N3CCCC3)cc2)cc1OC,active: 9.2 µM,
O=C(c1cccc(S(=O)(=O)N2CCc3ccccc32)c1)N1CCN(c2ccccn2)CC1,active: 9.2 µM,
COc1cc(-c2nc(S(=O)(=O)c3ccc(C)cc3)c(N3CCOCC3)o2)cc(OC)c1OC,inactive,
CCN(CC)CCNC(=O)c1ccc(NC(=O)C2CCN(c3ncnc4sc(C)c(C)c34)CC2)cc1,"inconclusive: 23.1 µM [cytotoxic, single point]",
CCC(C)NC(=O)C1(NC(=O)Nc2ccccc2)CCCCC1 (stereo unspecified),inactive,
